Experimental findings from article PMC5700166 are described below.

This is a selection; strong and weak results do not stand in their true shares. The list includes weakly bound sequences.

For the assay, the target named is T1, GST-Dm-Relish (UniProt Q94527).
T1 sequence: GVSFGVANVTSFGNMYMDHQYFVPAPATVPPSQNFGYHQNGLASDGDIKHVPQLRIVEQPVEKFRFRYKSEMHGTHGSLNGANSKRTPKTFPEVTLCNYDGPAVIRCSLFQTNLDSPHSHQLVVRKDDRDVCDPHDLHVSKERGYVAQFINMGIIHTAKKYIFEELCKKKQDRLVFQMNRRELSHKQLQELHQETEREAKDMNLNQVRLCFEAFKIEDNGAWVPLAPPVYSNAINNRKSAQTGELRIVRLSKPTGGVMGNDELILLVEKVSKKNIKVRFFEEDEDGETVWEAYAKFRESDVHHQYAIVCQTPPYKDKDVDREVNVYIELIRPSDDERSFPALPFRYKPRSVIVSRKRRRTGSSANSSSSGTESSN
The assay is described as follows: protein-binding microarray (PBM). The conditions noted are these: PBM: ~300 nM protein, 6 mM HEPES pH 7.8, 80 mM KCl, 0.5 mM EDTA, 0.5 mM EGTA, 6% glycerol, 35 ng/ul poly-dIdC, 1% milk, 1 h, room temperature; Ap Aiptasia and Nv Nematostella (sea anemones) / Co Capsaspora / Aq Amphimedon (sponge) / Dm Drosophila / Hu human; RHD is the Rel homology domain; high values mean tight binding; most listed sequences are background and not binding sites; double strand, one strand shown.
As to “CCGATTAACATCACCGAACGCTTTGATGTTAATCGGGTCTTGATTCGCTTGACGCTGCTG”, the binding signal is 0.729 z-score.

In the case of “CCGATTAACATCAGTAGGTTCTTTGATGTTAATCGGGTCTTGATTCGCTTGACGCTGCTG”, the binding signal was -0.0689 z-score.

For “CCGATTAACATCAACGCCCTGCCTGATGTTAATCGGGTCTTGATTCGCTTGACGCTGCTG”, the binding signal was -0.334 z-score.

Regarding “CCGATTAACATCATATGAGGACCTGATGTTAATCGGGTCTTGATTCGCTTGACGCTGCTG”, the binding signal is -0.242 z-score.

Consider “CCGATTAACATCACTGTTCACTCTGATGTTAATCGGGTCTTGATTCGCTTGACGCTGCTG”, for which the binding signal was -0.185 z-score.

As to “CCGATTAACATCATTAGCGTTACTGATGTTAATCGGGTCTTGATTCGCTTGACGCTGCTG”, the binding signal was -0.459 z-score.

Turning to “CCGATTAACATCACGAAGCTTGATGATGTTAATCGGGTCTTGATTCGCTTGACGCTGCTG”, the binding signal is -0.245 z-score.

In the case of “CCGATTAACATCAGTTCTCCGGGTGATGTTAATCGGGTCTTGATTCGCTTGACGCTGCTG”, the binding signal was 0.314 z-score.

In turn, “CCGATTAACATCACTAATCTTTTTGATGTTAATCGGGTCTTGATTCGCTTGACGCTGCTG” yielded a binding signal of 0.144 z-score.

“CCGATTAACATCAGGATTTTCTATGATGTTAATCGGGTCTTGATTCGCTTGACGCTGCTG” registered a binding signal of 0.364 z-score.

“CCGATTAACATCAGCGTTGGATGTGATGTTAATCGGGTCTTGATTCGCTTGACGCTGCTG” came in with a binding signal of 0.0133 z-score.

“CCGATTAACATCAGCTCTGGAACTGATGTTAATCGGGTCTTGATTCGCTTGACGCTGCTG”: the binding signal is -1.08 z-score.

On to “CCGATTAACATCATAAACTCTCTTGATGTTAATCGGGTCTTGATTCGCTTGACGCTGCTG”, for which the binding signal is -0.0446 z-score.

In the case of “CCGATTAACATCAGACGCTATAATGATGTTAATCGGGTCTTGATTCGCTTGACGCTGCTG”, the binding signal is -0.2 z-score.

As to “CCGATTAACATCAGCGATTCCTTTGATGTTAATCGGGTCTTGATTCGCTTGACGCTGCTG”, the binding signal was -0.631 z-score.

For “CCGATTAACATCACGGAATCTCCTGATGTTAATCGGGTCTTGATTCGCTTGACGCTGCTG”, the binding signal is -0.0342 z-score.

As to “CCGATTAACATCAACCCTCGAACTGATGTTAATCGGGTCTTGATTCGCTTGACGCTGCTG”, the binding signal is -0.399 z-score.

As for “CCGATTAACATCATCGACAGCAGTGATGTTAATCGGGTCTTGATTCGCTTGACGCTGCTG”, the binding signal is -0.596 z-score.

With “CCGATTAACATCAAAGTGGTCTTTGATGTTAATCGGGTCTTGATTCGCTTGACGCTGCTG”, the binding signal was found to be 0.0268 z-score.

As to “CCGATTAACATCATTTCTCCTATTGATGTTAATCGGGTCTTGATTCGCTTGACGCTGCTG”, the binding signal is -0.261 z-score.

Turning to “CCGATTAACATCAGGATTGCCCATGATGTTAATCGGGTCTTGATTCGCTTGACGCTGCTG”, the binding signal turned out to be 0.763 z-score.

With “CCGATTAACATCAGTGCAGTCTATGATGTTAATCGGGTCTTGATTCGCTTGACGCTGCTG”, the binding signal was -0.0174 z-score.

“CCGATTAACATCAGTTCCTAATATGATGTTAATCGGGTCTTGATTCGCTTGACGCTGCTG” returned a binding signal of 0.013 z-score.

On to “CCGATTAACATCAAAGATTTGAATGATGTTAATCGGGTCTTGATTCGCTTGACGCTGCTG”, for which the binding signal is -0.183 z-score.

Take “CCGATTAACATCACTCTGGCTCTTGATGTTAATCGGGTCTTGATTCGCTTGACGCTGCTG”: the binding signal was -0.562 z-score.

For the sequence “CCGATTAACATCAGTGCTGACCGTGATGTTAATCGGGTCTTGATTCGCTTGACGCTGCTG”, the binding signal was -0.374 z-score.

Take “CCGATTAACATCAGCTCTAACTGTGATGTTAATCGGGTCTTGATTCGCTTGACGCTGCTG”: the binding signal is -0.159 z-score.

“CCGATTAACATCAAAGGGAATTCTGATGTTAATCGGGTCTTGATTCGCTTGACGCTGCTG” gave a binding signal of 4.04 z-score.

Consider “CCGATTAACATCACACTACATCGTGATGTTAATCGGGTCTTGATTCGCTTGACGCTGCTG”, for which the binding signal was found to be 0.136 z-score.

As to “CCGATTAACATCAGCGCAAGATATGATGTTAATCGGGTCTTGATTCGCTTGACGCTGCTG”, the binding signal is -0.315 z-score.

For the sequence “CCGATTAACATCACAACTCACATTGATGTTAATCGGGTCTTGATTCGCTTGACGCTGCTG”, the binding signal was determined as 0.0886 z-score.

“CCGATTAACATCAGGGAATTCCCTGATGTTAATCGGGTCTTGATTCGCTTGACGCTGCTG”: the binding signal came to 10 z-score.

Sequence “CCGATTAACATCAACTAAATTCCTGATGTTAATCGGGTCTTGATTCGCTTGACGCTGCTG” gave a binding signal of 0.419 z-score.

Sequence “CCGATTAACATCAGTGATTAAGGTGATGTTAATCGGGTCTTGATTCGCTTGACGCTGCTG” gave a binding signal of 0.152 z-score.

The sequence “CCGATTAACATCAGGAAATCTCCTGATGTTAATCGGGTCTTGATTCGCTTGACGCTGCTG” returned a binding signal of 0.00386 z-score.

“CCGATTAACATCAGTGGAAAGTATGATGTTAATCGGGTCTTGATTCGCTTGACGCTGCTG” returned a binding signal of 0.0163 z-score.

“CCGATTAACATCATTGTTATGCTTGATGTTAATCGGGTCTTGATTCGCTTGACGCTGCTG”: the binding signal was -0.172 z-score.

The sequence “CCGATTAACATCACCAATTTTCCTGATGTTAATCGGGTCTTGATTCGCTTGACGCTGCTG” registered a binding signal of 0.117 z-score.

“CCGATTAACATCAGGCCGCCCGCTGATGTTAATCGGGTCTTGATTCGCTTGACGCTGCTG”: the binding signal is -0.667 z-score.
